Assay results published in PubChem BioAssay AID1508623 (National Center for Advancing Translational Sciences (NCATS), 2021).
The campaign covered roughly 48,000 compounds. About 450 (0.94%) were called active. Not shown: some 19% with an inconclusive outcome. The call rests on the fitted dose curve; in most records, active means well fitted inhibition curve with a large enough effect; inconclusive means small, poorly fitted or top-dose-only effect; inactive means no such curve, though single readings can be large or run the other way. The list shows a part of the results.

assay: Primary qHTS for Identification of Small Molecule Inhibitors of Huntingtin Promoter Activity; conditions: HEK293 HTT promoter firefly luciferase reporter (activity 0% = vehicle and -100% = no light), 24 h; series mostly up to 57.5 µM; activity change, negative = inhibition: at the top concentration; further: nearly all actives have a fitted effect of over 50% in size
Outline: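 HEK293 luciferase promoter-reporter cells (2,500/well) plated 24 h, then compounds added at up to 57.5 uM final for 24 h at 37 °C. Firefly luminescence by Dual-Glo, normalized to vehicle (0%) and zero RLU (-100%).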

Activity change, negative = inhibition, inactive:
CC(C)c1ccc(/C=C(\C#N)c2nc(-c3ccc(O)cc3)cs2)cc1 -21.8%, Cn1ccc2cc(S(=O)(=O)N3CCN(C(=O)Nc4ccccc4F)CC3)ccc21 -9.23%, Nc1nc(N)c(S(=O)(=O)c2ccccc2)c(Nc2ccc(F)cc2)n1 -24.1%, O=C(CSc1nc2ccccc2nc1Cc1ccccc1)N1CCCc2ccccc21 -23.8%, CCOC(N)=O 17%, CCOC(=O)c1cccc(NC(=O)c2sc3nc[nH]c(=O)c3c2C)c1 59.4%, CCc1ccc2occ(CC(=O)N(Cc3ccc(N(C)C)cc3)C3CCS(=O)(=O)C3)c2c1 (configuration not stated) -17.6%, Cc1cccc(N(C)S(=O)(=O)c2nnc(NC(=O)C3CCCCC3)s2)c1 -19.1%, Cc1cccc(C(=O)Nc2ccc(N3CCC(CCN4CCOCC4)CC3)c(C(=O)O)c2)c1 -4%, O=C(Nc1ccc(S(=O)(=O)N2CCC(c3nc4ccccc4s3)CC2)cc1)c1ccccc1F -8.49%, CCN(C(=O)NCc1noc2ccccc12)c1cc(C)ccc1C -25.3%, CCOc1ccc(CNC(=O)CCn2cccn2)cc1OC -0.333%, CCCCC12CN3CC(C)(CN(C1)C3c1c(C)[nH]c(=O)[nH]c1=O)C2=O (configuration not stated) -12.6%, CCN(CCCNC(=O)c1nn(-c2ccc(OC)cc2)c(=O)c2c1c1ccccc1n2C)c1cccc(C)c1 -9.83%, CCOc1ccc(NC(=O)CN2C(=O)C(c3ccccc3)=NC23CCCCCC3)cc1 -26.1%, Cc1nc2nc(SCC(=O)NC(C)c3ccccc3)nn2c(C)c1Cc1c(F)cccc1Cl (configuration not stated) -27.2%, Cc1ccc(Nc2nccc(N(C)c3ccc4c(C)n(C)nc4c3)n2)cc1S(N)(=O)=O, CCOc1ccc(CN2C(=O)c3ccccc3Sc3ccc(C(=O)NCc4ccc(C)cc4)cc32)cc1 -23.8%, COc1cccc(CSc2nc3n(n2)C(c2ccccc2C)C(C(=O)Nc2ccccc2OC)=C(C)N3)c1 (configuration not stated) 0%, O=C(CSc1oc(-c2ccco2)nc1S(=O)(=O)c1ccc(Cl)cc1)c1ccccc1 -13.7%, COCCCn1c(=N)c(C(=O)NC2CCCC2)cc2c(=O)n3ccccc3nc21 -3.51%, Cc1ccc(CCNC(=O)CCSCc2ccc(Cl)cc2)cc1 -18.5%, Cc1ccc(-c2nc3c4cnn(-c5cc(Cl)ccc5Cl)c4ncn3n2)cc1 2.28%, CCN(CC)CCNC(=O)c1cc(Br)c(N)cc1OC -11.4%, Cc1ccc(S(=O)(=O)c2nnn3c2nc(Nc2ccc(C(C)C)cc2)c2sccc23)cc1C -14.2%, CCOc1ccc(-n2c(SCc3nc(-c4ccccc4C)no3)nnc2-c2ccccc2)cc1 1.82%, CC(C)Cc1nn2c(=O)cc(COC(=O)c3ccccc3NC(=O)c3ccccc3)nc2s1 -18.1%, CC(=O)Nc1ccc(NC(=O)CN2C(=O)CN(C)C(=O)c3ccccc32)cc1 7.38%, CCCn1c(=O)c2sccc2n2c(CCCC(=O)NCCOC)nnc12 -11.2%, CN(C)c1ccc(CNc2nc(-c3ccco3)nn2C(=O)c2cccc([N+](=O)[O-])c2)cc1 53.7%, CN(C)c1ccc(CN(CC2CCCO2)C(=O)COc2ccc(Cl)cc2)cc1 (configuration not stated) -29.4%, CCc1ccc(-n2c(C)nc3cc(C(=O)NCCc4ccccc4)ccc32)cc1 -21.1%, CC(C)CC(=O)Nc1ccc(C(=O)OCc2cc(=O)n3nc(C4CCCCC4)sc3n2)cc1 -9.79%, Cc1nc(N2CCCC2)ncc1C(=O)Nc1ccccc1 0.537%, COc1cccc(CN2C(=O)c3ccccc3C2C(=O)NCCc2ccc(OC)c(OC)c2)c1 (configuration not stated) -6.81%, Cc1cc(O)c(C(c2cccc(Cl)c2)N2CCN(c3ccccc3)CC2)c(=O)n1Cc1ccco1 (configuration not stated) -0.764%, CCC1CN(C(=O)NCc2ccc(F)cc2)c2ccccc2O1 (configuration not stated) 0.996%, Cc1ccc(NC(=O)c2ccco2)c(OCc2cc(=O)n3cc(C)sc3n2)c1 -5.63%, COc1ccc(-n2c(=O)c3c4c(sc3n(Cc3cc(=O)n5c(C)cccc5n3)c2=O)CCC4)c(OC)c1 -4.62%, CC(C)(Cc1c[nH]c2ccccc12)NCC(O)COc1ccccc1C#N (configuration not stated) -6.35%, Cc1ccc(Cn2c(=O)c3ccccc3n3c(-c4ccccc4)nnc23)cc1 -12.4%, CCc1ccc(CNC(=O)CSCc2cnn(-c3ccccc3)c2-n2cccc2)cc1 -14%, Cc1ccc(OCC(=O)Nc2ccc3nc(SCC(=O)N4CCCC4)sc3c2)cc1C -2.67%, COc1ccc(NC(=O)CCCS(=O)(=O)c2nc(-c3ccc(OC)c(OC)c3)cc(C(F)(F)F)n2)cc1OC -9.35%, Cc1ccc(SCC(=O)Nc2ccc3oc(-c4cccc(C)c4)nc3c2)cc1 -10.1%, Cc1ccc(Cl)cc1NC(=O)CCS(=O)(=O)c1ccc(Br)s1 -3.7%, CCN1C(=O)CC(C(=O)Nc2ccc(OC)cc2)SC1=Nc1ccc(C)c(C)c1 (configuration not stated) -12.7%, CCOC(=O)c1noc2ncn(CC(=O)O)c(=O)c12 63.8%, O=C(NCCC1=CCCCC1)c1ccc2c(c1)N(Cc1ccccc1)C(=O)c1ccccc1S2(=O)=O -6.95%, O=C(Cn1cc(SCc2ccccc2Cl)c2ccccc21)N1CCCCCC1 -17.4%, Cc1ccc(CNC(=O)CN(c2cc(C)cc(C)c2)S(=O)(=O)c2c(C)[nH]c(=O)[nH]c2=O)cc1 -15%, Cc1ccc(N2CCN(C(=O)c3nn(C)c4c3CSc3ccccc3-4)CC2C)cc1 (configuration not stated) -17%, CCOc1ccc(-c2ccc(CO)o2)cc1N 14.9%, CCc1ccc(C2c3c(n[nH]c3C)C(=O)N2c2ccc(C)cc2)cc1 (configuration not stated) 34.5%, CCc1cccc(NC(=O)CCS(=O)(=O)c2ccc(C)cc2)c1 -4.98%, O=C(NC1CCCC1)c1ccc2c(c1)N(Cc1ccc(F)cc1)C(=O)c1ccccc1S2 -11.8%, COc1ccc(NC(=O)C(Cc2ccccc2)n2cccc2)c(OC)c1 (configuration not stated) -24.8%, COc1ccc(-c2noc(-c3ccccc3NC(=O)c3cc(OC)c(OC)c(OC)c3)n2)cc1 -6.3%, O=S(=O)(Nc1nc2n(n1)C(c1ccccc1)C=C(c1ccc(Cl)cc1)N2)c1ccccc1 (configuration not stated) -7.06%, O=C(NCc1ccc(Cl)cc1)C1CCCN(c2ncnc3onc(-c4ccc(F)cc4)c23)C1 (configuration not stated) -11.8%, COc1ccc(Nc2nnc(-c3ccc(C)c(S(=O)(=O)N4CCOCC4)c3)c3ccccc23)cc1 -5.99%, OC(CCN1CCCCC1)(c1ccccc1)c1ccccc1 -7.09%
